From the supplement of paper PMC12067230
The data scatter; read single values as rough.

Assay: amyloid nucleation score relative to library mode (yeast Sup35 reporter selection) (log enrichment difference); higher = more amyloid nucleation; sequences are the first 22 residues of the Bri2 peptide extended by up to 12 random residues
Conditions: random library (experiment): 1;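 active = nucleation score significantly above 0 at FDR 0.05; inactive = not significantly above 0 or absent from output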
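Also: [psi-pin-] Saccharomyces cerevisiae expressing SupN fusions, induced by 100 µM Cu2SO4, selected 7 d at 30 °C without adenine and uracil, scored by deep sequencing of output versus input.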

Question: Which amyloid nucleation score does the source give for EASNCFAIRHFENKFAVETLICCYDTLRRHSRDR here?
Answer: 4.56

Question: With EASNCFAIRHFENKFAVETLICCYGCRLTFVTVV as the sequence, how does the amyloid nucleation score read?
Answer: inactive

Question: For EASNCFAIRHFENKFAVETLICCYGNGVKGDSRA, which amyloid nucleation score is on record?
Answer: 5.45

Question: For EASNCFAIRHFENKFAVETLICCYHDLPGMRMFS, which amyloid nucleation score is on record?
Answer: 3.24

Question: Which amyloid nucleation score does the source give for EASNCFAIRHFENKFAVETLICCYHRCQVANFFR here?
Answer: -0.195

Question: Which amyloid nucleation score does the source give for EASNCFAIRHFENKFAVETLICCYHRPALRPTMC here?
Answer: inactive

Question: Which amyloid nucleation score does the source give for EASNCFAIRHFENKFAVETLICCYHSCGFSTWLA here?
Answer: inactive

Question: Which amyloid nucleation score does the source give for EASNCFAIRHFENKFAVETLICCYLY here?
Answer: 4.76

Question: Which amyloid nucleation score does the source give for EASNCFAIRHFENKFAVETLICCYMTYWQ here?
Answer: 3.33

Question: With EASNCFAIRHFENKFAVETLICCYNIGRSARLRR as the sequence, how does the amyloid nucleation score read?
Answer: 5.56

Question: Which amyloid nucleation score does the source give for EASNCFAIRHFENKFAVETLICCYQNPGVGVVVM here?
Answer: inactive

Question: With EASNCFAIRHFENKFAVETLICCYRCDKNQTWYV as the sequence, how does the amyloid nucleation score read?
Answer: 3.4

Question: Which amyloid nucleation score does the source give for EASNCFAIRHFENKFAVETLICCYRLVFTVCRTG here?
Answer: 0.591

Question: With EASNCFAIRHFENKFAVETLICCYS as the sequence, how does the amyloid nucleation score read?
Answer: inactive

Question: For EASNCFAIRHFENKFAVETLICCYSGWLDGGRRQ, which amyloid nucleation score is on record?
Answer: 8.94

Question: With EASNCFAIRHFENKFAVETLICCYSSSSKMCFGI as the sequence, how does the amyloid nucleation score read?
Answer: 5.01

Question: Which amyloid nucleation score does the source give for EASNCFAIRHFENKFAVETLICCYTAYWF here?
Answer: 4.75

Question: With EASNCFAIRHFENKFAVETLICCYVA as the sequence, how does the amyloid nucleation score read?
Answer: 5.92

Question: With EASNCFAIRHFENKFAVETLICCYVCACDWVGTV as the sequence, how does the amyloid nucleation score read?
Answer: 5.4

Question: Which amyloid nucleation score does the source give for EASNCFAIRHFENKFAVETLICCYVCVRSLDVWW here?
Answer: 5.47

Question: Which amyloid nucleation score does the source give for EASNCFAIRHFENKFAVETLICCYVVKSPMYLFG here?
Answer: 5

Question: With EASNCFAIRHFENKFAVETLICCYVVTLCMWGYA as the sequence, how does the amyloid nucleation score read?
Answer: inactive

Question: With EASNCFAIRHFENKFAVETLICCYVYTPSADMQ as the sequence, how does the amyloid nucleation score read?
Answer: 8.52

Question: For EASNCFAIRHFENKFAVETLICCYWISNQVNLLT, which amyloid nucleation score is on record?
Answer: inactive

Question: Which amyloid nucleation score does the source give for EASNCFAIRHFENKFAVETLICCYYSVWPARGLW here?
Answer: 5.01

Question: With EASNCFAIRHFENKFAVETLICDACDIPFGGSIR as the sequence, how does the amyloid nucleation score read?
Answer: 2.73

Question: For EASNCFAIRHFENKFAVETLICDACKHRRERYYC, which amyloid nucleation score is on record?
Answer: inactive

Question: Which amyloid nucleation score does the source give for EASNCFAIRHFENKFAVETLICDAFV here?
Answer: inactive

Question: Which amyloid nucleation score does the source give for EASNCFAIRHFENKFAVETLICDAGVTWRLCELG here?
Answer: inactive

Question: With EASNCFAIRHFENKFAVETLICDAL as the sequence, how does the amyloid nucleation score read?
Answer: inactive

Question: With EASNCFAIRHFENKFAVETLICDALAASYSGSPK as the sequence, how does the amyloid nucleation score read?
Answer: inactive

Question: For EASNCFAIRHFENKFAVETLICDALNDKRWMNNW, which amyloid nucleation score is on record?
Answer: inactive

Question: For EASNCFAIRHFENKFAVETLICDALPAESASRIL, which amyloid nucleation score is on record?
Answer: inactive

Question: With EASNCFAIRHFENKFAVETLICDALTRGDRYLSD as the sequence, how does the amyloid nucleation score read?
Answer: inactive

Question: With EASNCFAIRHFENKFAVETLICDALYIRVSMG as the sequence, how does the amyloid nucleation score read?
Answer: inactive

Question: Which amyloid nucleation score does the source give for EASNCFAIRHFENKFAVETLICDAMVRRWYHMST here?
Answer: 3.02

Question: For EASNCFAIRHFENKFAVETLICDANCQLWLSVCS, which amyloid nucleation score is on record?
Answer: 0.428

Question: For EASNCFAIRHFENKFAVETLICDAQAFRPDVGQS, which amyloid nucleation score is on record?
Answer: -0.338

Question: With EASNCFAIRHFENKFAVETLICDASTVIRVRRRR as the sequence, how does the amyloid nucleation score read?
Answer: inactive

Question: With EASNCFAIRHFENKFAVETLICDATMLIGVACRA as the sequence, how does the amyloid nucleation score read?
Answer: inactive

Question: Which amyloid nucleation score does the source give for EASNCFAIRHFENKFAVETLICDATWLDPVVGVW here?
Answer: inactive

Question: With EASNCFAIRHFENKFAVETLICDAVPRP as the sequence, how does the amyloid nucleation score read?
Answer: inactive

Question: With EASNCFAIRHFENKFAVETLICDAVQSTGTEG as the sequence, how does the amyloid nucleation score read?
Answer: inactive

Question: With EASNCFAIRHFENKFAVETLICDAWADCGAKGTS as the sequence, how does the amyloid nucleation score read?
Answer: 5.47

Question: For EASNCFAIRHFENKFAVETLICDAYHHWCRSTPT, which amyloid nucleation score is on record?
Answer: 3.29

Question: For EASNCFAIRHFENKFAVETLICDAYPRLVASCAC, which amyloid nucleation score is on record?
Answer: inactive

Question: Which amyloid nucleation score does the source give for EASNCFAIRHFENKFAVETLICDAYVAVVCALAR here?
Answer: inactive

Same assay, conditions: random library (experiment): 2

Question: For EASNCFAIRHFENKFAVETLICCYCVIRLIQMEE, which amyloid nucleation score is on record?
Answer: inactive

Question: For EASNCFAIRHFENKFAVETLICCYCVMSGFCLGF, which amyloid nucleation score is on record?
Answer: -0.438

Question: With EASNCFAIRHFENKFAVETLICCYESLSLDRYSL as the sequence, how does the amyloid nucleation score read?
Answer: 3.17

Question: For EASNCFAIRHFENKFAVETLICCYESTAISHLSR, which amyloid nucleation score is on record?
Answer: 3.65

Question: Which amyloid nucleation score does the source give for EASNCFAIRHFENKFAVETLICCYFA here?
Answer: 7.77

Question: For EASNCFAIRHFENKFAVETLICCYFNSCKVLTVN, which amyloid nucleation score is on record?
Answer: 3.94

Question: With EASNCFAIRHFENKFAVETLICCYFYDADRVWCG as the sequence, how does the amyloid nucleation score read?
Answer: 4.24

Question: Which amyloid nucleation score does the source give for EASNCFAIRHFENKFAVETLICCYG here?
Answer: inactive

Question: Which amyloid nucleation score does the source give for EASNCFAIRHFENKFAVETLICCYGRYVSYENRK here?
Answer: 1.47

Question: Which amyloid nucleation score does the source give for EASNCFAIRHFENKFAVETLICCYLCAYIVSA here?
Answer: 4.82

Question: With EASNCFAIRHFENKFAVETLICCYLLPSNSSTSS as the sequence, how does the amyloid nucleation score read?
Answer: 7.53

Question: With EASNCFAIRHFENKFAVETLICCYLTLNVVSGGT as the sequence, how does the amyloid nucleation score read?
Answer: inactive

Question: For EASNCFAIRHFENKFAVETLICCYMCISATCSRR, which amyloid nucleation score is on record?
Answer: 1.57

Question: Which amyloid nucleation score does the source give for EASNCFAIRHFENKFAVETLICCYMVIDFVHFRF here?
Answer: 0.86

Question: For EASNCFAIRHFENKFAVETLICCYPYSALMNG, which amyloid nucleation score is on record?
Answer: 5.7

Question: Which amyloid nucleation score does the source give for EASNCFAIRHFENKFAVETLICCYRYMQLYGSPR here?
Answer: inactive

Question: Which amyloid nucleation score does the source give for EASNCFAIRHFENKFAVETLICCYST here?
Answer: 6.83

Question: Which amyloid nucleation score does the source give for EASNCFAIRHFENKFAVETLICCYVWTMSSWLYR here?
Answer: inactive

Question: With EASNCFAIRHFENKFAVETLICCYVYGVLGVEGM as the sequence, how does the amyloid nucleation score read?
Answer: 2.78

Question: For EASNCFAIRHFENKFAVETLICDAHSLICDTVLG, which amyloid nucleation score is on record?
Answer: -0.728

Question: For EASNCFAIRHFENKFAVETLICDALKYGDGFLPG, which amyloid nucleation score is on record?
Answer: inactive

Question: For EASNCFAIRHFENKFAVETLICDANWVWHCSSLW, which amyloid nucleation score is on record?
Answer: 4.87

Question: With EASNCFAIRHFENKFAVETLICDAPLYCMWSVGL as the sequence, how does the amyloid nucleation score read?
Answer: inactive

Question: With EASNCFAIRHFENKFAVETLICDASRLSLRGGKG as the sequence, how does the amyloid nucleation score read?
Answer: inactive

Question: With EASNCFAIRHFENKFAVETLICDAWV as the sequence, how does the amyloid nucleation score read?
Answer: inactive

Same assay, conditions: random library (experiment): 3

Question: With EASNCFAIRHFENKFAVETLICCYDNFYCTLTWT as the sequence, how does the amyloid nucleation score read?
Answer: -0.42

Question: Which amyloid nucleation score does the source give for EASNCFAIRHFENKFAVETLICCYGDPRSRAALV here?
Answer: inactive

Question: Which amyloid nucleation score does the source give for EASNCFAIRHFENKFAVETLICCYLKRCLYMLRL here?
Answer: inactive

Question: Which amyloid nucleation score does the source give for EASNCFAIRHFENKFAVETLICCYRCMDLDSGWT here?
Answer: 5.9

Question: Which amyloid nucleation score does the source give for EASNCFAIRHFENKFAVETLICCYRVVRPLMSMW here?
Answer: inactive

Question: Which amyloid nucleation score does the source give for EASNCFAIRHFENKFAVETLICCYTLSNR here?
Answer: 7.79

Question: For EASNCFAIRHFENKFAVETLICCYVVGGSYCW, which amyloid nucleation score is on record?
Answer: 6.34

Question: For EASNCFAIRHFENKFAVETLICDA, which amyloid nucleation score is on record?
Answer: inactive

Question: For EASNCFAIRHFENKFAVETLICDAGLDGLVWRAG, which amyloid nucleation score is on record?
Answer: inactive

Question: For EASNCFAIRHFENKFAVETLICDAMGVLAWASFM, which amyloid nucleation score is on record?
Answer: inactive

Question: For EASNCFAIRHFENKFAVETLICDAMIPAPHCLNF, which amyloid nucleation score is on record?
Answer: inactive

Question: Which amyloid nucleation score does the source give for EASNCFAIRHFENKFAVETLICDAMLLMGTWTA here?
Answer: inactive

Question: For EASNCFAIRHFENKFAVETLICDAVGRDLVEGMS, which amyloid nucleation score is on record?
Answer: inactive

Question: For EASNCFAIRHFENKFAVETLICDAVVGDDLVL, which amyloid nucleation score is on record?
Answer: inactive

Question: Which amyloid nucleation score does the source give for EASNCFAIRHFENKFAVETLICDAYFCLLEPCSN here?
Answer: inactive
